# Measurements reported in PubChem BioAssay AID463173 (ICCB-Longwood Screening Facility, Harvard Medical School, 2010).
# The campaign covered roughly 52,000 compounds. About 1,700 (3.3%) were called active. Rule as the data show it: active = survival mostly below about 52% (no sharp cut-off); inactive = mostly above about 56%. Some of the results follow.
# System: Wild type
# Assay: growth inhibition of S. aureus wild type versus tarO mutant, primary screen, teichoic acid synthesis inhibitors, RN4220, OD600 (AID 463173)
# Details: S. aureus RN4220 wild type/DeltatarO growth, OD600, 18 h, stronger effect = lower value, screened at 18.75 µg/mL (by protocol)
row,Compound,survival
1,Cc1ccc(N(C(=O)c2cccc(C)c2)S(=O)(=O)c2ccc(Cl)cc2)cc1,inactive: 65%
2,CCN(CC)CCNC(=O)Cn1ncc2c3ccccc3n(Cc3ccccc3C)c2c1=O,inactive: 103%
3,O=S(=O)(c1ccc2[nH]c3c(c2c1)CCCCC3)N1CCN(c2ccccc2)CC1,inactive: 77%
4,COc1cccc(CNC(=O)c2cc(-c3cccc(OC)c3)n[nH]2)c1,inactive: 74%
5,COc1ccc(NC(=O)N2CCN(C(=O)C(Cc3ccc(F)cc3)NC(C)=O)CC2)cc1 (stereo not given),inactive: 113%
6,CN1CCC(N(Cc2ccco2)C(=O)c2cc3sccc3n2Cc2ccccc2)CC1,inactive: 109%
7,Cc1ccc(N2CCN(C(=O)CCc3c(C)nc4c(c3C)c(=O)n(C)c(=O)n4C)CC2)c(C)c1,inactive: 77%
8,O=C(CCn1cnc2ccccc2c1=O)NCc1ccccc1,inactive: 120%
9,CC(=O)C1=C(c2ccc(Cl)c(Cl)c2)N(C(C)=O)n2c(C)nnc2S1,inactive: 121%
10,CN1C(=O)Cc2cc(S(=O)(=O)CCC(=O)Nc3ccccc3)ccc21,inactive: 70%
11,CCN(CC)CCCNC(=O)Cn1nc(N2CCN(c3ccccc3OC)CC2)ccc1=O,inactive: 84%
12,Cc1cc(C)n(CCCO)c(=O)c1C#N,inactive: 93%
13,COc1cc(OC)c(N(C)C(=O)c2nn(C)c3c2CSc2ccccc2-3)cc1Cl,inactive: 70%
14,Cc1cccc(C)c1NC(=O)c1oc2c(c1C)-c1nn(Cc3ccccc3)cc1CC2,inactive: 63%
15,CCCSCCCNC(=O)CN1C(=O)COc2ccc(S(=O)(=O)N3CCC(C)CC3)cc21,inactive: 82%
16,O=C(CN1CCOCC1)N1CCN(c2ccccc2)CC1,inactive: 107%
17,CCc1ccc(S(=O)(=O)Nc2ccc(-c3ccc(N4CCCCCC4)nn3)cc2)cc1,inactive: 78%
18,O=C(NCC(c1ccccc1)c1ccccc1)c1nn(-c2ccccc2Cl)nc1CO,inactive: 86%
19,CCOc1ccccc1NC(=O)c1sc(-n2nc(C)c(CCC(C)C)c2C)nc1C,inactive: 94%
20,Cc1nc2c(C(=O)N(C)Cc3ccccc3)c[nH]n2c(=O)c1Cc1ccc(Cl)cc1,inactive: 94%
21,Cc1ccc(Cl)cc1N1CCN(C(=O)c2ccc3c(c2)N(Cc2ccccc2F)C(=O)c2ccccc2S3(=O)=O)CC1,inactive: 90%
22,C=CCNc1nc(C(C)C)nc2c1nnn2Cc1ccccc1,inactive: 101%
23,COc1ccc(Cl)cc1NC(=O)CN(C)S(=O)(=O)c1ccc(Br)s1,inactive: 95%

row,Compound,survival
1,CCOc1ccc(C(C)N)cc1 (stereo not given),inactive: 102%
2,CCCCOc1ccc(S(=O)(=O)N2CCN(c3ccccc3OCC)CC2)cc1,inactive: 112%
3,COCCCNC(=O)CCC(=O)N1Cc2ccccc2Oc2ncccc21,inactive: 91%
4,Cc1cc2c(c3oc(=O)c4ccccc4c13)CN(Cc1ccc(F)cc1)CO2,inactive: 77%
5,CCC1CCCCN1CCCNC(=O)CN1C(=O)CSc2ccc(S(=O)(=O)N3CCC(C)CC3)cc21 (stereo not given),inactive: 124%
6,Cc1cc(C)c2oc(-c3cccc(NC(=O)c4ccco4)c3)nc2c1,inactive: 114%
7,O=C(Nc1cccc(Cl)c1)Nc1ccccc1OCc1cc(=O)n2ccccc2n1,inactive: 67%
8,Cc1ccc(-n2nc3c(N4CCCC(C(=O)NCCc5ccccc5)C4)nnc(C)c3c2C)cc1 (stereo not given),inactive: 74%
9,Cc1ccc(CNC(=O)Cn2ccn(-c3ccc(C)c(C)c3)c(=O)c2=O)cc1,inactive: 86%
10,CN(C)c1ccc(CNC(=O)CN(C)S(=O)(=O)c2ccc3c(c2)c(=O)n(C)c(=O)n3C)cc1,inactive: 91%
11,Cc1ccc(CNC(=O)CN(c2ccc(Cl)cc2Cl)S(=O)(=O)c2ccccc2)cc1,inactive: 69%
12,Cc1ccc(CCNC(=O)Cn2c(-c3cccs3)cc3cc(F)ccc32)cc1,inactive: 86%
13,CCc1cccc2sc(N3CCN(C(=O)c4cc5ccccc5cc4OC)CC3)nc12,inactive: 123%
14,COc1cccc(C(=O)Nc2c(C(=O)NC(C)(C)C)oc3ccccc23)c1,inactive: 118%
15,Cc1ccc(C(=O)CSc2nc(C)cc(SCC#N)n2)cc1,inactive: 113%
16,CCc1cccc(NC(=O)Cn2c(=O)n(CCc3ccc(OC)c(OC)c3)c(=O)c3ccccc32)c1,inactive: 124%
17,Cc1ccc(-c2nnn(CC(=O)N(CC(=O)NCC3CCCO3)C3CCN(Cc4ccccc4)CC3)n2)o1 (stereo not given),inactive: 113%
18,COc1ccc(CC(=O)NCc2ccc3c(c2)CCN3C(=O)c2ccc(C)cc2)cc1OC,inactive: 71%
19,O=C(Cn1ncc2c(=O)oc3ccccc3c21)NCc1ccccc1Cl,inactive: 92%
20,O=c1c2c3c(sc2nc(NCCO)n1-c1ccccc1)CCCC3,inactive: 100%
21,CCOC(=O)c1c(C)[nH]c(C)c1S(=O)(=O)N1CCCC(C(=O)Nc2ccc(OC)c(Cl)c2)C1 (stereo not given),inactive: 100%
22,O=C(Cn1ncc2c3ccccc3n(Cc3ccccc3F)c2c1=O)NCCc1ccc(Cl)cc1,inactive: 65%
23,COc1cccc(CNC(=O)CSc2c3c(nc4ccc(Cl)cc24)CCCC3)c1OC,inactive: 76%

row,Compound,survival
1,O=C(Cn1cnc(S(=O)(=O)N2CCCC2)c1)Nc1ccc(OC(F)(F)F)cc1,inactive: 84%
2,CCc1ccc(NC(=O)c2cc3sc(Cl)cc3n2C)cc1,inactive: 116%
3,CC1=C(C(=O)Nc2ccc(C)cc2C)C(c2ccc(Cl)cc2)n2nc(C(=O)OC(C)C)nc2N1 (stereo not given),inactive: 82%
4,COc1ccc(CN2COc3ccc4c(-c5ccccc5)cc(=O)oc4c3C2)cc1,inactive: 117%
5,Cc1cccc(N2CCN(C(=O)C3CCN(S(=O)(=O)c4cccs4)CC3)CC2)c1C,inactive: 99%
6,O=C1CCN(C(=O)c2ccccc2)C2CCCCC12 (stereo not given),inactive: 121%
7,COc1ccc(OC)c(NC(=O)Cn2cnc3c(oc4ccccc43)c2=O)c1,inactive: 75%
8,Cc1ccccc1Nc1nnc(-c2ccc(C)c(S(=O)(=O)N3CCOCC3)c2)c2ccccc12,inactive: 107%
9,Cc1ccsc1/C=N/NC(=O)CO,inactive: 106%
10,CCOc1ccc(NC(=O)C2CCN(S(=O)(=O)c3cc(-c4noc(C)n4)ccc3C)CC2)cc1,inactive: 134%
11,CN(Cc1ccccc1)C(=O)COc1ccc(S(=O)(=O)N2CCCC2)cc1,inactive: 121%
12,CC(C)CC(=O)NCc1nc2cccnc2n1Cc1ccccc1,inactive: 77%
13,COc1ccc(C(=O)N2CC(C)CC(C)C2)cc1 (stereo not given),inactive: 109%
14,O=C(O)CCC(=O)NC(c1ccccc1)c1ccccc1,inactive: 108%
15,CSc1cccc(-c2nnc(NC(=O)c3ccc4c(c3)OCCO4)o2)c1,inactive: 64%
16,O=S(=O)(Nc1cc(Sc2ncn[nH]2)c(O)c2ccccc12)c1cccs1,inactive: 122%
17,CCOC(=O)c1nc(Nc2ccc(C(=O)OCC(C)C)cc2)c2ccccc2n1,inactive: 91%
18,O=C(CCc1cn(Cc2ccccc2F)c2ccccc12)NCc1ccc(Cl)cc1,inactive: 81%
19,O=C1CSC(c2ccccc2)N1Nc1nc(N2CCOCC2)nc(N2CCOCC2)n1 (stereo not given),inactive: 120%
20,COc1ccc(-c2ccc(NS(=O)(=O)c3cccc(Cl)c3)cc2)nn1,inactive: 82%
21,Cc1ccccc1CNC(=O)c1ccc(Cn2c(SCc3cccc(F)c3)nc3cccnc32)cc1,inactive: 70%
22,COc1ccc(N2CCN(C(=O)c3cc(S(=O)(=O)N4CCCCCC4)cn3C)CC2)cc1,inactive: 69%
23,CN1CCN(CCCC(=O)c2ccc(F)cc2)CC1,inactive: 97%

row,Compound,survival
1,Cc1ccc2oc(C(=O)N(Cc3cccc(F)c3)C3CCS(=O)(=O)C3)c(C)c2c1 (stereo not given),inactive: 78%
2,COc1cccc(Cn2c(=O)n(-c3ccc(C)c(F)c3)c(=O)c3sc4ccccc4c32)c1,inactive: 81%
3,COc1cccc(NC(=O)N2CCC(n3c(C)nc4cccnc43)CC2)c1,inactive: 73%
4,COc1cccc(OC)c1C(=O)Nc1nnc(C)s1,inactive: 77%
5,Cc1ccc(-c2cc(C(F)(F)F)n3nc(-c4ccc(Cl)cc4)cc3n2)cc1,inactive: 66%
6,COc1ccc(CNC(=O)C2CCN(Cc3nc(-c4ccc(OC)c(OC)c4)oc3C)CC2)cc1,inactive: 91%
7,Cc1ccc(N(CC(C)C)S(=O)(=O)c2nnc(NC(=O)c3ccco3)s2)cc1,inactive: 48%
8,COc1ccccc1N1CCN(C(=O)c2sc3nc4n(c(=O)c3c2C)CCC4)CC1,inactive: 79%
9,CCCCN(CC)CCNC(=O)c1cn(CCOC)c(=O)c2c1c1ccccc1n2C,inactive: 89%
10,CCC(=O)N1CCc2cc(S(=O)(=O)CCC(=O)Nc3ccc(Cl)c(C(F)(F)F)c3)ccc21,inactive: 74%
11,CC(=O)N1C(Nc2ccc(C)cc2)CCN1c1ccccc1 (stereo not given),inactive: 104%
12,CCOc1ccc(C(=O)c2cn(Cc3ccccc3OC)c3cc4c(cc3c2=O)OCCO4)cc1,inactive: 80%
13,Cc1ccc(NC(=O)Cn2c(=O)oc3ccccc32)cc1Cl,inactive: 55%
14,COc1ccccc1CN1COc2ccc3c(C)cc(=O)oc3c2C1,inactive: 92%
15,O=C(NC1CC(=O)N(c2cccc(F)c2)C1)c1ccc(S(=O)(=O)N2CCOCC2)cc1 (stereo not given),inactive: 81%
16,CN(C)c1ccc(C(C(=O)NC2CCCCC2)N(Cc2ccco2)C(=O)Cc2c[nH]c3ccccc23)cc1 (stereo not given),inactive: 107%
17,O=S(=O)(NCc1ccco1)c1ccc(Cl)cc1,inactive: 107%
18,OC(CN1CCCCC1)CN(c1ccccc1)c1ccccc1 (stereo not given),inactive: 113%
19,COc1cc(/C=C(\C#N)C(=O)Nc2ccc(S(N)(=O)=O)cc2)ccc1O,inactive: 105%
20,CCOC(=O)c1ccc(NC(=O)CSc2ccc(-c3sc(C)nc3C)nn2)cc1,inactive: 32%
21,CCOC(=O)c1ccc(NC(=O)c2cn(-c3ccccc3)nc2-c2ccc(Br)cc2)cc1,inactive: 69%
